# The supplement of paper PMC11417369
# This is one part of the list.
# System: PF3D7_0420300 AP2 domain 1 (GST-tagged)
# Experiment: gcPBM binding intensity (ln(normalized median fluorescence intensity)); higher = stronger DNA binding
# In short: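 Each value is the highest Masliner-normalised natural-log median intensity across replicate spots of either orientation of a probe. The probes were primer-extended double-stranded 36-bp intergenic genomic sequences on an Agilent 4 × 180k array, alongside negative controls, exposed for 1 h to GST-tagged P. falciparum DNA-binding domains expressed in E. coli. Bound protein was picked up with Alexa488 anti-GST antibody and scanned at 488 nm.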
row,Sequence,gcPBM binding intensity (ln)
1,GATTATATATACAAAAGTACATTATAAAAATTTCAT [XGTACX_site4223],9.07
2,AGAAAAGAGAGAAAAACATGCACATGATATTATAAA [TGCATGCA_site120],9.19
3,GTGAATATTAAAAAATGTACACAATTATATGTATAT [XGTACX_site4834],9.24
4,TTCTTTTAATTACGAGTGCATACCATATGACATTAT [GTGCAC_site9819],9.19
5,ATAAACATCTAGTGCTGTACACAATTTGATTTTTTT [XGTACX_site3110],9.17
6,CAAATACATGGACACACACACATATACAGATATATA [CACACA_site5854],10
7,TTTTTTTTTTTTTTCTGTACTTAAAAAGGGGGAGAA [XGTACX_site3799],9.4
8,CAAACATGTTCAAATTGTACAATAGAAAATATATAT [XGTACX_site1557],9.32
9,TTGAAGTTTGATTGTAGTACGAATTGGTAGTTTTTT [XGTACX_site6854],9.4
10,GGAAGAATATATAGGACACACATACAATAATAAATA [CACACA_site6124],9.75
11,TTTTTTTTTTTTTTTTTTTTTTGTGAAACTAAGTAA [CACACA_negctrl_site273],8.31
12,TTTTTTTTTTTTTTTTTGCAATATATTTTAAAAAAG [CACACA_negctrl_site25],8.15
13,AACTTCTTTTTTATAACACACAAAATATAAATACAA [CACACA_site4313],9.46
14,TTTTATATCTAGTTTATATTTCTTAAATAAATAAAT [GTGCAC_negctrl_site245],8.9
15,CAAATTAAATATTATGCATGTACCAAACATCCTACC [TGCATGCA_site35],9.33
16,AACATATAAATGATATGTACACACATTTATATATAT [XGTACX_site7364],9.49
17,TAATACAAAAAGAAAAGTACATGTTAATTATTATTT [XGTACX_site2196],9.23
18,TTTAATATGTATTTTTTTTTTTTTTTTTTTTTTTTT [XGTACX_negctrl_site440],9
19,TATAACAGGAATTATATATATATATATATATATTAT [CACACA_negctrl_site911],9.07
20,CTTTTTTTAGTTAGGTGTACAATTTGTTATTATTAG [XGTACX_site1507],9.43
21,TTTTTTTTTTTTTTTTGTACATATTTCTTATAAGTG [XGTACX_site6459],8.77
22,AAAAGAGAAACATTTACACACAAATATAGATATATG [CACACA_site1027],9.73
23,TTTTATGGAAAGTGTTGTACATATTTTTGTATATGT [XGTACX_site7356],9.15
24,TTGTATAATTTAACAAGTACAAAATAAATTTGTATA [XGTACX_site5505],8.93
